The target of the assay is T1, CD3εδ complex protein (human; alpaca, UniProt P07766 23-126; P04234 22-105).
T1 construct: they are not part of the secreted protein; also called human CD3; CD386 complex protein
Put plainly: ELISA, CD3 complex immobilized. An outline of the steps:
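Bispecific anti-TSPAN8/anti-CD3 antibodies bound to immobilized CD3εδ complex protein in ELISA, detected with HRP anti-human IgG Fc and TMB absorbance. EC50 from a four-parameter variable-slope fit, top fixed at plate maximum and bottom at blank; reference antibody averaged across plates.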
A general note: ELISA stands for enzyme-linked immunosorbent assay.

Numbering of substitutions follows the chain as printed.

Sequence of UniProt P07766 (P07766 23-126 limits assumed, stated change not applied, form in doubt, chain 1 of 2): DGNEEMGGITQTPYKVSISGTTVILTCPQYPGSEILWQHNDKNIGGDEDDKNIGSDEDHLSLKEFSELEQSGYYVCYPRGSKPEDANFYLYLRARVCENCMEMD
Sequence of UniProt P07766 (P04234 22-105 limits assumed, stated change not applied, form in doubt, chain 2 of 2, further chain): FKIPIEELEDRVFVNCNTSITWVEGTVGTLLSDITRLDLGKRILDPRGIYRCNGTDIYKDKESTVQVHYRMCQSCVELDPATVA

B1: BTE-0123 (bispecific antibody)
chain 1: QVQLVESGGGVVQPGGSLRLSCAASGFTFSSYGMHWVRQAPGKGLEWVAVIWYDGRNKYYADSVKGRFTISRDNSKNTLYLQMNSLRAEDTAVYYCTRDHSGSGSYYIDYWGQGTLVTVSSASTKGPSVFPLAPSSKSTSGGTAALGCLVKDYFPEPVTVSWNSGALTSGVHTFPAVLQSSGLYSLSSVVTVPSSSLGTQTYICNVNHKPSNTKVDKKVEPKSCDKTHTCPPCPAPEAAGGPSVFLFPPKPKDTLMISRTPEVTCVVVDVSHEDPEVKFNWYVDGVEVHNAKTKPREEQYNSTYRVVSVLTVLHQDWLNGKEYKCKVSNKALAAPIEKTISKAKGQPREPQVYTLPPSRDELTKNQVSLSCAVKGFYPSDIAVEWESNGQPENNYKTTPPVLDSDGSFFLVSKLTVDKSRWQQGNVFSCSVMHEALHNHYTQKSLSLSPGK
chain 2: EIAMTQSPATLSVSPGERATLSCRASQSVSSNLAWYQQKPGQAPRLLIYGASTRATGLPARFSGSGSGTEFTLTISSLQSEDFAVYYCQQYNNFWTFGQGTKVEIKRTVAAPSVFIFPPSDEQLKSGTASVVCLLNNFYPREAKVQWKVDNALQSGNSQESVTEQDSKDSTYSLSSTLTLSKADYEKHKVYACEVTHQGLSSPVTKSFNRGEC
chain 3: EVQLVESGGGLIQPGGSLRLSCAASGFTFNTYAMNWVRQAPGKGLEWVARIRSKYNNYATYYADSVKDRFTISRDDSKSTLYLQMNNLRAEDTAVYYCVRHGNFGNDYVSWFAYWGQGTLVTVSSGKPGSGKPGSGKPGSGKPGSQAVVTQEPSLTVSPGGTVTLTCRSSTGAVTTSNYANWVQQKPGQAPRGLIGGTNKRAPGTPARFSGSLLGDKAALTLSGAQPEDEAEYYCALWYSNHWVFGGGTKVTVL[human IgG1 Fc with C220S L234A L235A P329A T366W (EU numbers) cut from this listing]
For orientation: EC50 means the concentration needed to bring the measured effect to its halfway point. A lower EC50 goes with an effect from little substance. B1 registered an EC50 of 0.192 µg/mL.

B2: BTE-0077 (bispecific antibody)
chain 1: B1 chain 1
chain 2: B1 chain 2
chain 3: B1 chain 3 with Y61S, N106D, D107S, H242L
As to B2, the response was half-maximal at 0.274 µg/mL (EC50).

B3: BTE-0132 (bispecific antibody)
chain 1: B1 chain 1
chain 2: B1 chain 2
chain 3: B1 chain 3 with Y61S, D107S, H242L
Consider B3, for which the EC50 was 0.0315 µg/mL.

B4: BTE-0070 (bispecific antibody)
chain 1: B1 chain 1
chain 2: B1 chain 2
chain 3: B1 chain 3 with N30S, T31D, Y32H, N106D, D107S, H242L
B4 returned an EC50 of 0.632 µg/mL.

B5: BTE-0131 (bispecific antibody)
chain 1: B1 chain 1
chain 2: B1 chain 2
chain 3: B1 chain 3 with Y61E, D107S, H242L
B5 displayed an EC50 of 0.269 µg/mL.

B6: BTE-0076 (bispecific antibody)
chain 1: B1 chain 1
chain 2: B1 chain 2
chain 3: B1 chain 3 with Y61E, N106D, D107S, H242L
Molecule B6 displayed a 50% effective concentration (EC50) of 0.438 µg/mL.

B7: BTE-0078 (bispecific antibody)
chain 1: B1 chain 1
chain 2: B1 chain 2
chain 3: B1 chain 3 with N106D, D107E, H242L
B7 came in with a half-maximal effective concentration (EC50) of 0.634 µg/mL.

B8: BTE-0088 (bispecific antibody)
chain 1: B1 chain 1
chain 2: B1 chain 2
chain 3: B1 chain 3 with Y61S, D107S, T205V, H242L
B8 yielded an EC50 of 0.0556 µg/mL.

B9: BTE-0126 (bispecific antibody)
chain 1: B1 chain 1
chain 2: B1 chain 2
chain 3: B1 chain 3 with N35S, D107S, H242L
Turning to B9, the EC50 was 0.33 µg/mL.

B10: BTE-0081 (bispecific antibody)
chain 1: B1 chain 1
chain 2: B1 chain 2
chain 3: B1 chain 3 with N30S, T31D, Y32H, D107S, T205V, H242L
B10 showed an EC50 of 0.152 µg/mL.

B11: BTE-0130 (bispecific antibody)
chain 1: B1 chain 1
chain 2: B1 chain 2
chain 3: B1 chain 3 with Y55A, D107S, H242L
In turn, B11 displayed a concentration giving a half-maximal response (EC50) of 0.0109 µg/mL.

B12: BTE-0084 (bispecific antibody)
chain 1: B1 chain 1
chain 2: B1 chain 2
chain 3: B1 chain 3 with N35A, D107S, T205V, H242L
The molecule B12 returned a half-maximal effective concentration (EC50) of 0.036 µg/mL.

B13: BTE-0089 (bispecific antibody)
chain 1: B1 chain 1
chain 2: B1 chain 2
chain 3: B1 chain 3 with D107E, T205V, H242L
The molecule B13 had an EC50 of 0.0975 µg/mL.

B14: BTE-0087 (bispecific antibody)
chain 1: B1 chain 1
chain 2: B1 chain 2
chain 3: B1 chain 3 with Y61E, D107S, T205V, H242L
B14 gave an EC50 of 1.02 µg/mL.

B15: BTE-0133 (bispecific antibody)
chain 1: B1 chain 1
chain 2: B1 chain 2
chain 3: B1 chain 3 with D107E, H242L
In the case of B15, the response was half-maximal at 0.0693 µg/mL (EC50).

B16: BTE-0082 (bispecific antibody)
chain 1: B1 chain 1
chain 2: B1 chain 2
chain 3: B1 chain 3 with N35S, D107S, T205V, H242L
For B16, the EC50 worked out at 0.322 µg/mL.

B17: BTE-0125 (bispecific antibody)
chain 1: B1 chain 1
chain 2: B1 chain 2
chain 3: B1 chain 3 with N30S, T31D, Y32H, D107S, H242L
For the molecule B17, the half-maximal effective concentration (EC50) was determined as 0.163 µg/mL.

B18: BTE-0086 (bispecific antibody)
chain 1: B1 chain 1
chain 2: B1 chain 2
chain 3: B1 chain 3 with Y55A, D107S, T205V, H242L
Turning to B18, the EC50 came out at 0.0379 µg/mL.

B19: BTE-0075 (bispecific antibody)
chain 1: B1 chain 1
chain 2: B1 chain 2
chain 3: B1 chain 3 with Y55A, N106D, D107S, H242L
In turn, B19 gave an EC50 of 0.113 µg/mL.

For the origin of these results see patent US20250304706A1 (Astellas, published 2025).
